Sequences with one replicate were seen in a single cluster, so their values are uncertain.
These sequences were tested on ATP (assay: switch fluorescence ratio, 500 uM ATP over buffer (Cy3 cluster intensity, sum of 5 cycles each) (fold (ratio)); higher = stronger signal-on switching upon ATP binding; sequences stand for … in TCGTCGGCAGCGTCAGATGTGTATAAGAGACAGTTTTTTTTTTTTTTTTTTTTTTTTT…TC). Settings: aptamer strand: ATP DNA aptamer (quencher-CACCTGGGGGAGTATTGCGGAGGAAGG + anchor), 100 nM annealed; ATP concentration: 500 uM; one replicate.
Summary of the method: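 Per cluster, summed Cy3 intensity from the target cycles was divided by that from the buffer cycles to give the fluorescence ratio, then averaged per switch-domain sequence. Clusters outside 100-1000 RFU were excluded. The Cy3-labelled switching-strand clusters, on a modified Illumina MiSeq flow-cell, were annealed to 100 nM quencher-labelled ATP aptamer and imaged in selection buffer, then after 15 min with 500 uM ATP at 22 °C, for five cycles with NaOH stripping and re-annealing between them.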
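Note: ATP exposure 15 min at 22 °C before imaging.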

Row | Sequence | switch fluorescence ratio
1 | TTGGTCACGC | 0.972
2 | TTGGTCAGAG | 1.04
3 | TTGGTCATCG | 1.05
4 | TTGGTCATGT | 0.988
5 | TTGGTCGGAA | 0.977
6 | TTGGTGAACC | 1.01
7 | TTGGTGCGGT | 0.976
8 | TTGGTGGGCT | 0.995
9 | TTGGTGTTTC | 0.936
10 | TTGGTTAACT | 0.967
11 | TTGGTTACCG | 1.02
12 | TTGGTTGCGC | 1.01
13 | TTGGTTTCAG | 0.974
14 | TTGGTTTCGG | 1.01
15 | TTGTAAACAA | 1.05
16 | TTGTAAAGCG | 0.978
17 | TTGTAAATTA | 1.01
18 | TTGTACATAA | 0.961
19 | TTGTACTCGG | 0.986
20 | TTGTACTCTA | 1.07
21 | TTGTACTGGG | 0.973
22 | TTGTAGGCAT | 0.993
23 | TTGTAGGTTG | 0.97
24 | TTGTAGTG | 1.05
25 | TTGTATGCCC | 0.989

Row | Sequence | switch fluorescence ratio
26 | TTGTATGTTG | 0.993
27 | TTGTCAAAGT | 0.982
28 | TTGTCATAAA | 1.01
29 | TTGTCCGAGA | 1.04
30 | TTGTCGTTTA | 1.02
31 | TTGTCTACTG | 0.969
32 | TTGTCTATAC | 1.56
33 | TTGTCTGGG | 0.985
34 | TTGTCTGTGG | 1
35 | TTGTGAGGAT | 0.995
36 | TTGTGCACAT | 0.988
37 | TTGTGCACGG | 1.02
38 | TTGTGCTCCG | 0.971
39 | TTGTGGCCGC | 1.02
40 | TTGTGGCCTG | 0.985
41 | TTGTGGCTCA | 0.953
42 | TTGTGGGCT | 0.926
43 | TTGTGGGTAA | 1.04
44 | TTGTGGTGCC | 0.982
45 | TTGTGGTTTT | 0.993
46 | TTGTGTAGG | 1.04
47 | TTGTGTATAG | 0.973
48 | TTGTGTCAAC | 1.04
49 | TTGTGTGCGC | 0.974
50 | TTGTGTGTCG | 1.02

Row | Sequence | switch fluorescence ratio
51 | TTGTTAAGTA | 0.996
52 | TTGTTATGGG | 1.09
53 | TTGTTCACAA | 1.03
54 | TTGTTCAGAC | 1.04
55 | TTGTTCCTCA | 1.04
56 | TTGTTCGTAA | 1.04
57 | TTGTTCTAGA | 0.974
58 | TTGTTGCGAT | 1.02
59 | TTGTTGGCTT | 0.946
60 | TTGTTGGGAG | 1.03
61 | TTGTTTAGAT | 1.01
62 | TTGTTTCATA | 0.972
63 | TTTAAAATGC | 1.71
64 | TTTAACCATT | 0.999
65 | TTTAACGGAC | 1.36
66 | TTTAACGGAG | 0.988
67 | TTTAACGTTC | 0.963
68 | TTTAAGAGGC | 1.16
69 | TTTAAGCCGT | 1.03
70 | TTTAAGGTGC | 1.51
71 | TTTAATCCGC | 1.52
72 | TTTAATTTCC | 1.02
73 | TTTACAACTA | 1
74 | TTTACCATGG | 1
75 | TTTACCCAAT | 1.03

Row | Sequence | switch fluorescence ratio
76 | TTTACCCAGA | 1.03
77 | TTTACCGACT | 1.02
78 | TTTACGCCAT | 1.22
79 | TTTACGCTAG | 1.05
80 | TTTACGGTGT | 0.962
81 | TTTACTCGAC | 1.21
82 | TTTACTGA | 1.03
83 | TTTACTTATA | 1.03
84 | TTTACTTCG | 1.05
85 | TTTACTTGGT | 1.03
86 | TTTAGAGGGC | 1.02
87 | TTTAGCGAAT | 1.21
88 | TTTAGCTGCT | 0.955
89 | TTTAGTAGCC | 0.964
90 | TTTAGTTAGA | 0.974
91 | TTTAGTTGCT | 1
92 | TTTATAAGAA | 1.08
93 | TTTATAGTAG | 1.04
94 | TTTATATCAA | 0.966
95 | TTTATCAAGC | 1
96 | TTTATCGCGG | 1.01
97 | TTTATGCTAA | 0.996
98 | TTTATGGGAG | 0.979
99 | TTTATGTACC | 1.11
100 | TTTATGTCTT | 0.969
